# Assay results: PubChem BioAssay (Tox21)
# “And” between values parts separate entries of the source, which are not always exact repeats. Identical values can stand only once. The shares of active, inactive and inconclusive entries below differ from those in the screen. Where the call is inconclusive, the potency comes from a doubtful curve fit. A structure can be active in one record and inactive in another. The source made the active and inactive calls. Calls follow the shape of the dose curve; as a rule, active = well fitted curve in the direction sought with a large enough effect in the repeat runs; inconclusive = weak or mixed curves; inactive = no such curve, though single readings can be large; an effect the other way counts as inactive or inconclusive.
# Key:
# [1] = A CellTox Green Cytotoxicity Assay to monitor cytotoxicity in HEK293 cells - 8 hour (AID 1224884); also: nearly all actives have a fitted effect of over 35% in size
# In short: (§1)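 Each value comes from one timepoint of a single continuous run in which HEK293 cells with CellTox Green were exposed to compound for up to 40 h at 37 C, dye fluorescence rising with cell death.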
# [2] = qHTS RealTime-Glo MT Cell Viability Assay in HepG2 cells - 0 hour (AID 1224889); also: nearly all actives have a fitted effect of over 50% in size
# In short: (§2)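 Luminescence read-out: viable HepG2 cells reduce a prosubstrate to a NanoLuc substrate, giving a signal proportional to live cell number. Reads taken at 0, 8, 16, 24, 32 and 40 h of compound exposure at 37 C.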
# [3] = qHTS RealTime-Glo MT Cell Viability Assay in HEK293 cells - 8 hour (AID 1224887); also: nearly all actives have a fitted effect of over 50% in size
# In short: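 qHTS format; HEK293 cells with NanoLuc/prosubstrate reagent, 37 C/5% CO2 for 5 h pre-dosing; compounds 23 nL in DMSO; luminescence at each time point reflects viable cells.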
# [4] = A CellTox Green Cytotoxicity Assay to monitor cytotoxicity in HEK293 cells - 16 hour (AID 1224888); also: nearly all actives have a fitted effect of over 35% in size
# In short: as §1
# [5] = qHTS assay to identify small molecule antagonists of the estrogen receptor alpha (ER-alpha) signaling pathway using the BG1 cell line in the presence of 0.1 nM 17-beta-estradiol - cell viability counter screen (AID 1259241); also: nearly all actives have a fitted effect of over 40% in size
# In short: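 Live-cell protease activity (CellTiter-Fluor fluorescence, 30 min) was read in the same wells after VM7Luc4E2 cells had been exposed to compounds with 0.1 nM 17beta-estradiol for 22 hr at 37C.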
# [6] = qHTS RealTime-Glo MT Cell Viability Assay in HepG2 cells - 16 hour (AID 1224885); also: nearly all actives have a fitted effect of over 50% in size
# In short: as §2
# [7] = qHTS RealTime-Glo MT Cell Viability Assay in HEK293 cells - 24 hour (AID 1224886); also: nearly all actives have a fitted effect of over 50% in size
# In short: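 Nonlytic real-time viability readout: viable cells convert prosubstrate to NanoLuc substrate, giving luminescence proportional to live cell number. HEK293, 600 cells/well, compound added after 5 h, continuous culture at 37 C.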
# [8] = A CellTox Green Cytotoxicity Assay to monitor cytotoxicity in HepG2 cells - 8 hour (AID 1224890); also: nearly all actives have a fitted effect of over 45% in size
# In short: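 Continuous culture of HepG2 cells with a membrane-impermeant DNA dye; rising fluorescence marks dead cells. Compound exposure lasted up to 40 h at 37 C, with reads every 8 h from 0 h.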
# Potency is read from the fitted curve at half-maximal effect; tags tell the direction and shape of the fitted curve.
compound,measurement,setting,value
C[C@]12C=CC(=O)C=C1CC[C@@H]1[C@@H]2[C@@H](O)C[C@@]2(C)[C@H]1CC[C@]2(O)C(=O)CO,Potency,[1],inactive
same,Potency,[2],"active: 21.6 µM and active: 19.5 µM and inconclusive: 26.8 µM [cytotoxic, partial curve]"
Nc1cc([N+](=O)[O-])ccc1O,Potency,[1],"inconclusive: 1.1 µM [activator, single point]"
same,Potency,[3],"inconclusive: 19.5 µM [cytotoxic, partial curve]"
same,Potency,[4],"inconclusive: 1.1 µM [activator, single point]"
same,Potency,[5],"active: 48.6 µM and inconclusive: 48.3 µM [cytotoxic, partial curve]"
Brc1cc(Oc2cc(Br)c(Br)c(Br)c2Br)c(Br)c(Br)c1Br,Potency,[6],"inconclusive: 3.34 µM [cytotoxic, single point]"
CCCOc1sc(C(=O)N2CCC(c3cc(CN)ccc3F)CC2)c(C)c1Br,Potency,[1],active: 40 µM
same,Potency,[3],active: 17.9 µM
same,Potency,[4],active: 35.7 µM
same,Potency,[2],"inconclusive: 22.5 µM [cytotoxic, partial curve, poor fit]"
same,Potency,[5],inconclusive: 62.8 µM [cytotoxic]
C=CCc1cc(S(=O)(=O)c2ccc(O)c(CC=C)c2)ccc1O,Potency,[6],"inconclusive: 49 µM [cytotoxic, partial curve]"
same,Potency,[7],active: 27.5 µM
same,Potency,[3],active: 24.5 µM
same,Potency,[4],inactive
same,Potency,[2],"inconclusive: 38.9 µM [cytotoxic, partial curve]"
C[C@@H](NCCCc1cccc(C(F)(F)F)c1)c1cccc2ccccc12,Potency,[1],"inconclusive: 26.8 µM [activator, single point]"
same,Potency,[3],active: 23.9 µM
same,Potency,[4],active: 23.9 µM
same,Potency,[2],"inconclusive: 10.7 µM [rising, partial curve]"
same,Potency,[8],active: 21.3 µM
Nc1ccc(N)c2ccccc12,Potency,[6],"inconclusive: 54.9 µM [cytotoxic, single point]"
same,Potency,[7],"inconclusive: 54.9 µM [cytotoxic, single point]"
same,Potency,[3],active: 24.5 µM
CC(C)(c1ccccc1)c1ccccc1,Potency,[1],"inconclusive: 51.1 µM [activator, single point]"
same,Potency,[3],"inconclusive: 36.1 µM [cytotoxic, partial curve, poor fit]"
same,Potency,[4],"inconclusive: 57.3 µM [activator, single point]"
COC(=O)[C@]1(C)CCC[C@@]2(C)[C@H]1CC=C1C=C(C(C)C)CC[C@@H]12,Potency,[1],active: 38.9 µM
same,Potency,[4],active: 38.9 µM
same,Potency,[5],inactive
CCCC(c1cc(C(C)(C)C)c(O)cc1C)c1cc(C(C)(C)C)c(O)cc1C,Potency,[1],"inconclusive: 55.6 µM [activator, single point]"
same,Potency,[7],active: 22.1 µM
same,Potency,[4],"inconclusive: 55.6 µM [activator, single point]"
same,Potency,[8],"inconclusive: 55.6 µM [activator, single point]"
N=C1N=C(N)c2cc3ccccc3cc21,Potency,[1],active: 54.9 µM
same,Potency,[4],active: 54.9 µM
same,Potency,[8],"inconclusive: 54.9 µM [activator, single point]"
same,Potency,[5],"inconclusive: 48.6 µM [cytotoxic, partial curve, poor fit]"
CCCCCCCCn1sc(Cl)c(Cl)c1=O,Potency,[1],active: 2.45 µM
same,Potency,[4],active: 1.95 µM
same,Potency,[2],"inconclusive: 17.4 µM [cytotoxic, full curve]"
Oc1ccc(C2(c3ccc(O)cc3)CC3CC2C2CCCC32)cc1 (centres undefined),Potency,[1],"inconclusive: 41.9 µM [activator, partial curve, poor fit]"
same,Potency,[3],"inconclusive: 37.4 µM [cytotoxic, partial curve]"
CC(C)(C)CC(C)(C)c1ccc(OCCOCC[N+](C)(C)Cc2ccccc2)cc1,Potency,[1],"inconclusive: 61.6 µM [activator, single point] and inconclusive: 26.8 µM [activator, single point]"
same,Potency,[3],"inconclusive: 54.9 µM [cytotoxic, single point] and inconclusive: 21.3 µM [cytotoxic, single point]"
same,Potency,[8],"inconclusive: 61.6 µM [activator, single point]"
same,Potency,[5],"inconclusive: 68.5 µM [cytotoxic, single point]"
O=C(Nc1ccc(Cl)cc1)Nc1ccc(Cl)c(C(F)(F)F)c1,Potency,[6],"inconclusive: 8.49 µM [cytotoxic, full curve]"
same,Potency,[7],active: 5.35 µM
same,Potency,[3],"inconclusive: 10.7 µM [cytotoxic, partial curve]"
O=c1n(CC2CO2)c(=O)n(CC2CO2)c(=O)n1CC1CO1 (centres undefined),Potency,[6],inactive
COc1cccc(-c2ccc(/C=C\CN3CCCCCC3)cc2Cl)c1,Potency,[1],"inconclusive: 48.7 µM [activator, single point]"
same,Potency,[4],"inconclusive: 48.7 µM [activator, single point]"
same,Potency,[8],"inconclusive: 48.7 µM [activator, single point]"
N/C(=N\N=C\c1ccc(Cl)cc1)N/N=C/c1ccc(Cl)cc1,Potency,[6],"inconclusive: 23.9 µM [cytotoxic, partial curve]"
same,Potency,[7],"inconclusive: 19 µM [cytotoxic, partial curve]"
same,Potency,[3],"inconclusive: 19 µM [cytotoxic, partial curve, poor fit]"
same,Potency,[4],active: 23.9 µM
same,Potency,[2],"inconclusive: 16.9 µM [rising, partial curve]"
same,Potency,[8],active: 21.3 µM
CC(=O)N1CCN(c2ccc(OC[C@H]3CO[C@](Cn4ccnc4)(c4ccc(Cl)cc4Cl)O3)cc2)CC1,Potency,[6],active: 49 µM
same,Potency,[7],active: 21.9 µM
same,Potency,[3],active: 24.5 µM
same,Potency,[4],active: 49 µM
same,Potency,[2],active: 24.5 µM
same,Potency,[5],"inconclusive: 54.5 µM [cytotoxic, partial curve]"
CC(=O)Nc1ccc(C(=O)O)cc1,Potency,[1],"inconclusive: 54.7 µM [activator, single point]"
same,Potency,[4],"inconclusive: 54.7 µM [activator, partial curve, poor fit]"
Brc1ccccc1-c1ccccc1,Potency,[1],inactive
same,Potency,[3],"inconclusive: 32.8 µM [cytotoxic, partial curve, poor fit]"
same,Potency,[4],"inconclusive: 41.3 µM [activator, partial curve, poor fit]"
same,Potency,[8],"inconclusive: 58.3 µM [activator, partial curve, poor fit]"
Oc1ccc(Cl)cc1Cc1cc(Cl)ccc1O,Potency,[6],"inconclusive: 22.3 µM [cytotoxic, partial curve] and inconclusive: 49 µM [cytotoxic, partial curve]"
same,Potency,[7],"inconclusive: 16.9 µM [cytotoxic, partial curve]"
same,Potency,[3],"inconclusive: 54.9 µM [cytotoxic, single point]"
same,Potency,[4],"inconclusive: 55.9 µM [activator, partial curve, poor fit]"
same,Potency,[8],"inconclusive: 54.9 µM [activator, single point]"
same,Potency,[5],"inconclusive: 62.3 µM [cytotoxic, partial curve, poor fit] and inconclusive: 33.5 µM [cytotoxic, single point]"
CC1CC(OC(=O)c2ccccc2O)CC(C)(C)C1 (centres undefined),Potency,[1],"inconclusive: 54.4 µM [activator, single point]"
same,Potency,[3],"inconclusive: 21.3 µM [cytotoxic, partial curve]"
same,Potency,[4],"inconclusive: 48.5 µM [activator, single point]"
CC(=O)O[C@]1(C(C)=O)CC[C@H]2[C@@H]3C=C(Cl)C4=CC(=O)[C@@H]5C[C@@H]5[C@]4(C)[C@H]3CC[C@@]21C,Potency,[6],"inconclusive: 43.6 µM [cytotoxic, partial curve, poor fit] and inconclusive: 24.5 µM [cytotoxic, partial curve] and inconclusive: 26.8 µM [cytotoxic, partial curve, poor fit]"
same,Potency,[7],"inconclusive: 43.6 µM [cytotoxic, partial curve] and active: 21.9 µM and inconclusive: 26.8 µM [cytotoxic, single point]"
same,Potency,[3],"inconclusive: 21.9 µM [cytotoxic, partial curve]"
S=C(SSSSSSC(=S)N1CCCCC1)N1CCCCC1,Potency,[6],"inconclusive: 12.1 µM [cytotoxic, single point]"
same,Potency,[7],"inconclusive: 17.1 µM [cytotoxic, partial curve, poor fit]"
same,Potency,[3],"inconclusive: 9.6 µM [cytotoxic, partial curve]"
same,Potency,[5],"inconclusive: 10.7 µM [cytotoxic, partial curve, poor fit]"
CCN=C1C=CC(=C(c2ccc(N(CC)CC)cc2)c2ccc(N(CC)CC)cc2)c2ccccc21,Potency,[6],active: 19.4 µM
same,Potency,[7],active: 7.71 µM
same,Potency,[4],active: 19.4 µM
same,Potency,[2],"inconclusive: 38.7 µM [cytotoxic, partial curve]"
same,Potency,[8],"inconclusive: 21.7 µM [activator, single point]"
same,Potency,[5],active: 24.2 µM
Cc1ccc(O)c(C(C)(C)C)c1,Potency,[6],inactive
same,Potency,[3],"inconclusive: 54.8 µM [cytotoxic, partial curve, poor fit]"
same,Potency,[4],"inconclusive: 54.8 µM [activator, single point]"
CC[C@H]1O[C@]2(CC[C@@H]1C)C[C@@H]1C[C@@H](C/C=C(\C)C[C@@H](C)/C=C/C=C3\CO[C@@H]4[C@H](O)C(C)=C[C@@H](C(=O)O1)[C@]34O)O2,Potency,[6],active: 43.3 µM
same,Potency,[3],active: 43.3 µM
same,Potency,[8],active: 48.5 µM
CC/C(=C(/c1ccc(O)cc1)c1ccc(OCCN(C)C)cc1)c1ccccc1,Potency,[6],active: 28.8 µM
same,Potency,[7],active: 10.2 µM
same,Potency,[4],active: 28.8 µM
